Measurements reported in PubChem BioAssay (NCATS).
The inconclusive results got no clear call from the source; some entries with a clear call stand among them for comparison. Potencies of inconclusive entries are left out as doubtful fits. Active and inactive are the calls of the source. Calls come from the whole dose curve; as a rule, active = well fitted inhibition curve with a large enough effect; inconclusive = small, poorly fitted or top-dose-only effect, or another doubt; inactive = no such curve, though single readings can be large or run the other way. *1 amine or outer side, *2 acyl side, *3 side chain or, on linkers, in order; H or OH if unused. Where a SMILES comes first, the peptide text is derived from it. Bridges are numbered along the chain shown (N, C = ends). [ ]: non-standard residue; d: D form. ξ: configuration not given here. hSer(Ph(2-I,4-NO2,6-CO)) = O=C([C@H](CCOc1c(I)cc([N+](=O)[O-])cc1C(=O)[*:3])N[*:1])[*:2]; ξD = NC(CC(=O)O)C(=O)O

target: DNA polymerase eta (Homo sapiens) (UniProt Q9Y253); experiment: qHTS for Inhibitors of Polymerase Eta: Confirmatory Assay for Cherry-picked Compounds (AID 720502); settings: Pol eta primer extension, TAMRA/BHQ fluorescence, 10 min
How it was run: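 Readout: TAMRA dequenching, ex 525/em 598 nm, read at 0 and 10 min. Enzyme: 10 nM human Pol eta, preincubated with compound 15 min RT. Substrate: 50 nM final annealed primer/reporter/template duplex.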
Potency is the fitted concentration of half-maximal effect; tags give direction and shape of the fitted curve.

Chain of UniProt Q9Y253 (Q9Y253 whole entry, looked up): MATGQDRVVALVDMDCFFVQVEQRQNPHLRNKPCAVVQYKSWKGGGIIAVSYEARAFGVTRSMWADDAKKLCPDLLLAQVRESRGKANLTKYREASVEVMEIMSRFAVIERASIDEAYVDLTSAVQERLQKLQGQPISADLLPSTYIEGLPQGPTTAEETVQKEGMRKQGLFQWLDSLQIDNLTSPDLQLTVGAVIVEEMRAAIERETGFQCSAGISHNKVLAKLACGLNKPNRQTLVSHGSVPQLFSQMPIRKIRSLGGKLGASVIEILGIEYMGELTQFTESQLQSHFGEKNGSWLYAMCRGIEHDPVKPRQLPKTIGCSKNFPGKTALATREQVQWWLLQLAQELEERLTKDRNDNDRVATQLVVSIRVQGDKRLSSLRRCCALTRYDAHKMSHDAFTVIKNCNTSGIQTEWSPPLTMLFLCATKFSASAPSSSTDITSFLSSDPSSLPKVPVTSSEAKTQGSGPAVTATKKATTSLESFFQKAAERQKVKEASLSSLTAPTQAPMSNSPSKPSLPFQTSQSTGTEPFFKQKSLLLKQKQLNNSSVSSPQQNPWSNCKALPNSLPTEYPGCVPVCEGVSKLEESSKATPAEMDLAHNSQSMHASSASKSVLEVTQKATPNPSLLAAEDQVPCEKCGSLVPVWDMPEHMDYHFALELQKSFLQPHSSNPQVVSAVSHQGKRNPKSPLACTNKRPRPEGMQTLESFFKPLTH

SMILES	Potency
Cc1ccc(C(=O)NCc2occc2C(=O)O)o1	active: 30.1 µM
COc1ccccc1C(CNC(=O)c1ccc(NS(=O)(=O)c2ccc(C(C)=O)cc2)cc1)N1CCCC1 (centres undefined)	inconclusive [inhibitor, single point]
COc1ccc(C(=O)NCC(=O)OCC(=O)Nc2sccc2C#N)cc1OC	inconclusive [inhibitor, single point]
Cc1ccc(C(=O)CSC2=C(C#N)C(c3ccco3)CC(=O)N2)c(C)c1 (centres undefined)	inconclusive [inhibitor, single point]
O=c1[nH]c(/C=C/c2ccc([N+](=O)[O-])cc2)c([N+](=O)[O-])c(=O)[nH]1	inconclusive [inhibitor, single point]
O=C(Nc1nnc(S(=O)(=O)N2CCCc3ccccc32)s1)c1cccc(F)c1	inconclusive [inhibitor, single point]
NC(=O)C(CC(=O)O)NC(=O)[C@@H]1CCOc2c(I)cc([N+](=O)[O-])cc2C(=O)N[C@@H](CO)C(=O)N[C@@H](Cc2ccc(O)cc2)C(=O)N1 (some centres undefined) (SY[hSer(Ph(2-I,4-NO2,6-CO))][ξD]-NH2; lactam N-3)	active: 30.1 µM
COc1ccc(N=C2NC(=O)/C(=C\C=C\c3ccco3)S2)cc1	inconclusive [inhibitor, single point]
Cc1ccc(C(=O)Nc2ccc(-c3nc4ccccc4[nH]3)cc2)cc1Br	inconclusive [inhibitor, single point]
Cc1ccc(C)c(Cn2nnc3c(=O)[nH]c(C(=O)NCc4ccco4)nc32)c1	active: 75.7 µM
CC(=O)/C(N=Nc1ccc(C(=O)O)cc1[N+](=O)[O-])=C(\C)O	inconclusive [inhibitor, single point]
O=C(O)C1=C(C(=O)O)C2C=CC1C2	inconclusive [inhibitor, single point]
c1csc(Cc2nn3c(-c4n[nH]c5c4CCC5)nnc3s2)c1	inconclusive [inhibitor, single point]
COC(=O)C1=C(O)/C(=C\c2ccc(CNS(=O)(=O)c3ccc(Cl)cc3)o2)N=C1C	inconclusive [inhibitor, single point]
C=C1CC[C@@H]2[C@](C)(CCC[C@@]2(C)/C=C/[C@@H](O)C(C)(C)O)[C@H]1CC(=O)NCCS(=O)(=O)O	inconclusive [inhibitor, single point]
N#Cc1cccc(OC(=O)c2ccc3c(=O)n4c(nc3c2)CCC4)c1	inconclusive [inhibitor, single point]
Cc1cc2c(SCC(=O)Nc3cccc(O)c3)ncnc2s1	active: 75.7 µM
CC1C=CC(C)C(C(=O)O)C1C(=O)O (centres undefined)	active: 5.36 µM
Cc1cc(=O)oc2cc(OCC(=O)NC(Cc3c[nH]c4ccc(O)cc34)C(=O)O)c(Cl)cc12 (centres undefined)	inconclusive [inhibitor, single point]
C=CCC1=C/C(=C\c2c(N)n3nc(CC(=O)N4CCOCC4)sc3nc2=O)C=C(OC)C1=O	inconclusive [inhibitor, single point]
COc1ccc(CN(CCC(c2ccccc2)c2ccco2)C(=O)c2ccco2)cc1 (centres undefined)	inconclusive [inhibitor, single point]
COc1cc(-c2[nH]nc3c2C(c2ccoc2)C(C#N)=C(N)O3)cc(OC)c1OC (centres undefined)	inconclusive [inhibitor, single point]
CCn1cc(C(=O)O)c(=O)c2cc(F)c(N/N=C/c3ccccc3[N+](=O)[O-])cc21	active: 42.6 µM
COc1ccc(-c2c(C(F)(F)F)[nH]n3c(=O)cc(-c4ccccc4)nc23)cc1	inconclusive [inhibitor, single point]
O=C(O)c1cccc(NS(=O)(=O)c2ccc(-c3ccc(S(=O)(=O)Nc4cccc(C(=O)O)c4)cc3)cc2)c1	inconclusive [inhibitor, single point]
O=C(N=Nc1c(O)[nH]c2ccc([N+](=O)[O-])cc12)c1ccccc1Cl	inconclusive [inhibitor, partial curve]
CN(C)c1ccc(NC(=O)CSCc2nc3c(nnn3Cc3ccc(F)cc3)c(=O)[nH]2)cc1	inconclusive [inhibitor, single point]
CCCOc1ccc(Cc2nn3c(=O)/c(=C/c4ccco4)sc3nc2=O)cc1	inconclusive [inhibitor, single point]
O=C1CSC(=S)N1Cc1cccnc1	inconclusive [inhibitor, single point]
